Results on 22 molecules are retold here after paper PMC12136788.

The list shows a part of the results.

Sequences and labels used below:
T1: UNK ZnF1-3 (human, UniProt Q9C0B0 31-174)
T1 sequence: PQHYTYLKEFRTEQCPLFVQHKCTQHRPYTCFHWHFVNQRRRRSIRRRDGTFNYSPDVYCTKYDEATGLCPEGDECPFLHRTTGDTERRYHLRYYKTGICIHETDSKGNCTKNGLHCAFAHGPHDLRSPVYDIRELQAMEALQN

B1: chr4:95690885:95690886:+_ENSMUSG00000028572_ENSMUST00000156910|mus_mus|FALSE|FALSE (ssRNA)
RNA: GGGAGUUCUACAGUCCGACGAUCAUAAUUUUUAGAAAAUGUUAAAUAGCAUGCUAAGUAAUUUUAAAGUCUUAUUUUACUAAAAGACACAGGCAAGCAGACACCAUAAACAUACAAAAAUACAAACCAACAGUGUAAAAUGUACAACAGAGGAUUGAGCAUCA
B2: chr10:108335898:108335899:-_ENSG00000108018_ENST00000263054|hu_mus|FALSE|FALSE (ssRNA)
RNA: GGGAGUUCUACAGUCCGACGAUCAACUCUUUUACACACAGUAUAUGUUUCCAGGUGAGAAAACCAGAGGUAUUUGGCAAAGAAAGAUUUGUGGGGAGGAGAUAGAAGGUAAAUAUAACUGAAGCCAGCUGGGCAGGACACAGCCAACAGAGGAUUGAGCAUCA
B3: 82335059_82335179_1720_CDS_ENSG00000106829_ENST00000265284|human|control|control (ssRNA)
RNA: GGGAGUUCUACAGUCCGACGAUCCACAGCGAUGUUGCCGUCGCUGCAGCAUGAGAAGCAGACCUUGGAAUCGGGGCUGAUGGCCAGGGCAUAGCAGGCGGGGGCCGAGGAUGUCAGCUCUGCCUUGAUGCGUGGGGUUGGAGCCAACAGAGGAUUGAGCAUCA
B4: chr10:33214929:33214930:-_ENSG00000150093_ENST00000302278|hu_hu|hu_hu_hu_mus_True|38_108 (ssRNA)
RNA: GGGAGUUCUACAGUCCGACGAUCAACAAGUUCAUUAAAAAACUCUCCUCUGUCAGUAAGACUAAGCACAUUUUUGUAGCUAAAUGGGCUGGUGCAGUUCUGUUCACUUGUACAAGGAUUUCUUAGCUUUGCUGGGGUUGUGCUCAACAGAGGAUUGAGCAUCA
B5: chr14:66974463:66974464:+_ENSMUSG00000022044_ENSMUST00000074523|mus_hu|mus_mus_mus_hu_False|38_78 (ssRNA)
RNA: GGGAGUUCUACAGUCCGACGAUCUUGUAGGACGACUUAUUCAGGGGAUCGGCCAGGAAGCAAGAGCAGAACAAGGACACCAGCGGGAGCUCCUUCAUCUUCUCCUUGUAGGCAGCAAGGGUCAUGUUUCUGGGAUCUGGUGGCCAACAGAGGAUUGAGCAUCA
B6: chr1:163117072:163117073:-_ENSG00000143248_ENST00000313961|hu_mus|FALSE|FALSE (ssRNA)
RNA: GGGAGUUCUACAGUCCGACGAUCCUGUGUUGCUACAAAGGAUGUAACUCAACUCACAGGGCAACUUUUGGAAGCCUGACCAGAUGACUACUUGAUUAGCUCCUUAUAAAAUUCAGAGCGCACAAAGCGGGGCAGAGAAUCCUUCAACAGAGGAUUGAGCAUCA
B7: 136913315_136913435_1101_CDS_ENSG00000169925_ENST00000303407|human|control|control (ssRNA)
RNA: GGGAGUUCUACAGUCCGACGAUCCUUGGAUAGCAUCUCCCUGAGGAUGCUGUCGCAGUAGCGUAGGUGCUCCGACAGCUUGCCCUUCUUGCCUGCGUGCUGGGGCACCUCGCCGUCCUCCAGGUCCUUCUUGGGAGGCUUGAUCAACAGAGGAUUGAGCAUCA
B8: 70689264_70689384_3054_3pUTR_ENSMUSG00000003923_ENSMUST00000092430|mouse|control|control (ssRNA)
RNA: GGGAGUUCUACAGUCCGACGAUCCCGAGUCCUUGAACACUCUGCAGGGUGCCUGGAAAGCUAGGAGCUAAGUAGUUACAUCUUAGAGGUCCGGGCAUCCCUGUAUCGCUGUAGUGCCUGCUGCUCCUGAGUUGCUCUGAAGCACAACAGAGGAUUGAGCAUCA
B9: chr5:132424181:132424182:+_ENSG00000170606_ENST00000304858|hu_hu|FALSE|FALSE (ssRNA)
RNA: GGGAGUUCUACAGUCCGACGAUCGGCACACUGCAAUGCACAGCCUCGAGUGACAGCUUCAUCAGCAUUUAAUGUUGUACUAAGUUCUUUACCGAAAAAUUUGCUGAUCUUCUCUUUUACCGCAGGGAUUCGUGUAGCACCACCCAACAGAGGAUUGAGCAUCA
B10: 138044936_138045304_1278_CDS_ENSMUSG00000041642_ENSMUST00000075164|mouse|control|control (ssRNA)
RNA: GGGAGUUCUACAGUCCGACGAUCAGAGUCCUGGAGCAGCCGAGUGAGCUUGGAGUCCCUGUAAGGCACGUGCACGACCUUCUUGCUCUGGUCCCCCAAGGCGCUGAUCACAUUGCCCAAGGCCAGCAGACCACAGUUGAUGGACAACAGAGGAUUGAGCAUCA
B11: 17865945_17866065_226_3pUTR_ENSMUSG00000057614_ENSMUST00000074694|mouse|control|control (ssRNA)
RNA: GGGAGUUCUACAGUCCGACGAUCCUCCACGGCCGCCUUGUCCUCAGCGCUCAAUGUGCAGCCCAUGGUGGCCGAGCGUCGCCGCGCCCUCGGCGCCGGGGCCGGCUGGCAGAGCGAGGAGAGGCUGGCCCGGAGGCGGCCCCGCAACAGAGGAUUGAGCAUCA
B12: chr19:47223328:47223329:-_ENSG00000090372_ENST00000263280|hu_mus|FALSE|FALSE (ssRNA)
RNA: GGGAGUUCUACAGUCCGACGAUCGUGGCACUCUAGGAGGGAGCCUGGCAUCUUCUUUCAUCUUGGUCAAAAUCAGAUCCCAAAGGACACCCAGCCUGGGCUGUGUCAAACUCAGGACGACAGCUAUGUCAGGAGUUGGGGUUGCAACAGAGGAUUGAGCAUCA
B13: chr1:63355414:63355415:+_ENSMUSG00000027520_ENSMUST00000029025|mus_mus|FALSE|FALSE (ssRNA)
RNA: GGGAGUUCUACAGUCCGACGAUCAACCAUCUUCUUUUUCCAAAAUUUCCUUUGAUUUUGACUUUCAAGAUCUUCCUUUUUAACUGAUUUGGGAAAUUUUUUGGCACCAUCACGAUUUACAAGAGUCUGCUGGAAAUUAUCCUUCAACAGAGGAUUGAGCAUCA
B14: 107040475_107040595_147_5pUTR_ENSMUSG00000028614_ENSMUST00000139560|mouse|control|control (ssRNA)
RNA: GGGAGUUCUACAGUCCGACGAUCCUGCCCGGUACGCUGCCUGGGCAGGGUUCUGCAAAGCCGCCAGACCAUCUCUCCGCAGCUUCGCCUGAACAGACUCAACCGGCCAGAACUUCCCCGUAGCCACAUGCCUCCAGGUGGGCUCAACAGAGGAUUGAGCAUCA
B15: chr15:59942915:59942916:-_ENSG00000140307_ENST00000396064|hu_mus|FALSE|FALSE (ssRNA)
RNA: GGGAGUUCUACAGUCCGACGAUCUAGAGAGCCCCUGAAAUUGACUCUGUUCCUGACUCUCUGAGCCAAUGCUGAAUUUAUAGCUUUAUCAAACUGAAGUAGAACUUGAAGCGCAAGCUGGGGGGUGAUCUGUUGAGACUGUAUCAACAGAGGAUUGAGCAUCA
B16: chr7:141438946:141438947:+_ENSG00000106028_ENST00000265304|hu_mus|hu_hu_hu_mus_True|1_8 (ssRNA)
RNA: GGGAGUUCUACAGUCCGACGAUCGACGAAAUACCUGUAACACAGGUCUUCGAAACAUGGCUUCUGUUUUUCUUACAACCUAAUCUUUAGGCUUUUCCUAAAGGAAAGAAAGAAAAGAGAAAAAUGAGCAGGGGAUCACUUCCGCAACAGAGGAUUGAGCAUCA
B17: chr3:179287964:179287965:+_ENSG00000136518_ENST00000429709|hu_hu|hu_hu_hu_mus_True|38_68 (ssRNA)
RNA: GGGAGUUCUACAGUCCGACGAUCCUUGAGUGGUGAGAUGGCCUCCAUGUUCUCCCUGGGCACGCGGAGAGCAUUAGUGUCUAUGUAGUAGGUGGGCCCGCCUUGUUUGCCUUUGUCACCAUCAAUCUCCAUCAUUGUACUUCCCAACAGAGGAUUGAGCAUCA
B18: chr7:54825262:54825263:-_ENSG00000132432_ENST00000352861|hu_hu|hu_hu_hu_mus_False|48_68 (ssRNA)
RNA: GGGAGUUCUACAGUCCGACGAUCCUGCCGGCUGGGCUCCACAAACUGCAUUACCUGAUCCAUGUUUUACCCAACCGGGAUUGAGAGUGCCAGGGACCGUAGCUCAGGAGAGAACCGAGCCCAACGGAACCGGAAGCUGGCAACCAACAGAGGAUUGAGCAUCA
B19: 4173556_4173676_2911_3pUTR_ENSG00000132388_ENST00000396981|human|control|control (ssRNA)
RNA: GGGAGUUCUACAGUCCGACGAUCCACCUCAACAGAUUGCUAGCAGAAUUAUAGCAAUAGGAGAGCAAAAUUUGAACUCCGUUUUGCCACAAGCAACCACCAUGUGAACAAGUUCUGAUUUUAAAAGGGAGGGAUCCCAUCUCUCAACAGAGGAUUGAGCAUCA
B20: chr7:75932113:75932114:+_ENSG00000106211_ENST00000248553|hu_hu|hu_hu_hu_mus_False|48_88 (ssRNA)
RNA: GGGAGUUCUACAGUCCGACGAUCCUGCGACCACUCAUCGGGCAACCGGGGCAGCCCGAAAGCUUGAUCGAAGAGGCGGCUGUGUGCGUACCAGUCGUCCCGGAAUGGUUCCCAGCUCGGGCUCCGCAGCAGCGAGAAGGGCACCAACAGAGGAUUGAGCAUCA
B21: chr16:45382771:45382772:-_ENSMUSG00000022661_ENSMUST00000163230|mus_mus|mus_mus_mus_hu_True|58_78 (ssRNA)
RNA: GGGAGUUCUACAGUCCGACGAUCCUGGGUCAUGUUAUAAGACAAAUGGACAGGGAGAGCAUGCUUUUCAAAAAAUGUGAACUACUCUCUAAGACUAACAAUAUUUAUCUAGCUAUAAAAAUAAGUUAAAUGAAUAAGUUAAGACAACAGAGGAUUGAGCAUCA
B22: 38089932_38090052_906_5pUTR_ENSMUSG00000022812_ENSMUST00000023507|mouse|control|control (ssRNA)
RNA: GGGAGUUCUACAGUCCGACGAUCCGGGUGAACCGGAGGGCAGCGCAGUCGCGAGUCAGCGGCGGGCGGUGGCGGCGGCUCCUCUCCUCAUUGCGCCAGGAGCAGCUGCAGGCGGUGGCUGGAUCCAGCGGCCAUGGCGGCAGCCAACAGAGGAUUGAGCAUCA

In the assay the target is T1, UNK ZnF1-3. As to the kind of experiment: nsRBNS (natural sequence RNA bind-n-seq); RBNS binding buffer (assumed for nsRBNS): 25 mM Tris pH 7.5, 150 mM KCl, 3 mM MgCl2, 0.01% Triton X-100, 500 ug/ml BSA, 20 U/ml SUPERase-In, 4 C; UNK is unkempt and MSI1 is Musashi-1; names of the RNAs are library labels; protein concentration not given here; high values mean tight binding.
Take B1: the binding signal is 1.91 enrichment R.

In turn, B2 gave a binding signal of 2.97 enrichment R.

Consider B3, for which the binding signal came to 0.995 enrichment R.

On to B4, for which the binding signal is 0.954 enrichment R.

In the case of B5, the binding signal was 2.12 enrichment R.

Take B6: the binding signal worked out at 1.16 enrichment R.

B7 came in with a binding signal of 0.774 enrichment R.

With B8, the binding signal came to 0.831 enrichment R.

In turn, B9 yielded a binding signal of 1.54 enrichment R.

Regarding B10, the binding signal amounted to 0.935 enrichment R.

With B11, the binding signal was determined as 0.7 enrichment R.

Molecule B12 displayed a binding signal of 1.39 enrichment R.

In turn, B13 showed a binding signal of 0.662 enrichment R.

As to B14, the binding signal worked out at 1.01 enrichment R.

As to B15, the binding signal is 1.13 enrichment R.

Molecule B16 showed a binding signal of 0.506 enrichment R.

With B17, the binding signal was determined as 0.728 enrichment R.

For the molecule B18, the binding signal was 1.31 enrichment R.

The molecule B19 registered a binding signal of 1.8 enrichment R.

In the case of B20, the binding signal was 0.728 enrichment R.

The molecule B21 gave a binding signal of 2.67 enrichment R.

The molecule B22 yielded a binding signal of 0.831 enrichment R.
